About 20 (0.03%) of roughly 75,000 compounds were called active. Inconclusive results, whose numbers are uncertain, are shown with a selection of clear calls. The call rests on the fitted dose curve; in most records, active means well fitted inhibition curve with a large enough effect; inconclusive means small, poorly fitted or top-dose-only effect; inactive means flat fitted curve, though single readings scatter. No potency is given beside an inconclusive call; the fits are too rough.
Target: Caspase-1 (Homo sapiens) (UniProt P29466)
Experiment: qHTS Assay for Allosteric/Competitive Inhibitors of Caspase-1;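 on activity change, negative = inhibition: plate controls were vehicle for no effect and no substrate for full effect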
Settings: Caspase-1 enzyme, Ac-WEHD-AFC fluorogenic rate; activity change, negative = inhibition: at 57.5 µM (top of the series) unless noted
Potency means the concentration at half of the fitted maximal effect; tags describe the fitted curve by direction and shape or compound fluorescence and quenching.

Row | Compound | Potency | activity change, negative = inhibition
1 | COc1ccc(N=c2oc3c(OC)cccc3cc2C(=O)NCc2ccco2)c(OC)c1 | inactive | 
2 | COc1ccc(-n2c(=O)c(CCc3ccccc3)nc3cnc(N4CCNCC4)nc32)cc1 |  | inconclusive: -19.6% [inhibitor]
3 | CCC/C=C(\CCC)C(NC(=O)c1ccc(C(=O)OC)cc1)c1ccc(C(=O)OC)cc1 (stereo unspecified) | inactive | 
4 | CCOC(=O)c1nn(-c2ccc(OC)cc2)c(=O)c2c(N)scc12 |  | inconclusive: -17.6% [inhibitor]
5 | O=C(O)COc1cccc2nsnc12 | inconclusive [inhibitor, partial curve] | 
6 | Cc1ccc(-c2nnc(SCC(=O)N3CC(C)CC(C)C3)o2)cc1C (stereo unspecified) | inactive | 
7 | CC1(C)OCC(CSC2=C(SCC3COC(C)(C)O3)C(=O)c3ncccc3C2=O)O1 (stereo unspecified) | inconclusive [inhibitor, single point] | 
8 | Nc1nc(COc2ccc3ccccc3c2)cs1 | inactive | 
9 | CC(C)(C)CC(C)(C)c1ccc(O)c(Cc2ccc(Cl)cc2Cl)c1 | inconclusive [inhibitor, single point] | 
10 | O=C(Nc1cccc2nsnc12)c1ccc2c(c1)OCCO2 | inconclusive [inhibitor, partial curve] | 
11 | CCN(CC)c1ccc(C=N/C(C#N)=C(\N)C#N)cc1 | inconclusive [inhibitor, partial curve] | 
12 | COc1ccccc1Nc1ncc(C(=O)N2CCC(C(N)=O)CC2)c2ccccc12 | inconclusive [inhibitor, partial curve] | 
13 | COc1ccc(C2CC(=O)C(C=NCCO)=C(O)C2)cc1OC (stereo unspecified) | inconclusive [inhibitor, single point] | 
14 | O=Cc1ccsc1B(O)O | inactive | 
15 | CCn1c(Cc2ccccc2)nnc1SCC(=O)Nc1ccc(N2CCOCC2)c(Cl)c1 | inactive | 
16 | COc1ccc(C2=CC(c3sccc3C)n3nnnc3N2)cc1 (stereo unspecified) | inconclusive [inhibitor, partial curve] | 
17 | COc1ccc(N(CC(=O)NC2CCCC2)C(=O)c2ccc(N3CCCCC3)nc2)cc1 |  | inconclusive: -17.2% [inhibitor]
18 | O=c1cnc2cnc(Nc3ccccc3)nc2n1Cc1cccs1 | inconclusive [inhibitor, single point] | 
19 | COc1cc(CNc2ccc3[nH]c(=O)[nH]c3c2)cc(Cl)c1OCC(=O)NC(C)(C)C |  | inconclusive: -15.5% [inhibitor]
20 | c1ccc(CN2COc3c(ccc4c5c(ccc34)CN(Cc3ccccc3)CO5)C2)cc1 |  | inactive: 0.376% [at 11.5 µM]
21 | COC(=O)CSc1nc2sc3c(c2c(=O)n1-c1ccccc1)CCN(C)C3 | inconclusive [inhibitor, partial curve] | 
22 | N#Cc1c(-c2cccs2)cc(-c2cccnc2)nc1N | inconclusive [inhibitor, partial curve] | 
23 | COC1C(O)COC1/C=C/c1ccccc1 (stereo unspecified) |  | inactive: -0.675% [at 11.5 µM]
24 | Cc1c(-c2ccccc2)sc(N)c1C(=O)N1CCOCC1 | inconclusive [inhibitor, partial curve] | 

Row | Compound | Potency | activity change, negative = inhibition
25 | Nc1ccc(O)c(-c2nc3ccccc3s2)c1 | inconclusive [inhibitor, partial curve] | 
26 | O=C(c1ccc(CSCc2ccccc2F)o1)N1CCN(c2ccc(N3CCOCC3)nn2)CC1 | inconclusive [inhibitor, single point] | 
27 | C/C(CCC(=O)OC[C@@H]1O[C@H](C#Cc2ccccc2)C=C[C@@H]1Oc1ccc(C)cc1)=N/O[C@@H](C)c1cn([C@H]2COC[C@H]2O)nn1 |  | inactive: -1.15% [at 11.5 µM]
28 | CCOc1cc(-c2nc3ccccn3c2NCC2CCCO2)ccc1O (stereo unspecified) | inconclusive [inhibitor, partial curve] | 
29 | COC(=O)[C@@H]1C[C@@]2(O)[C@@H](O)[C@@H](O)[C@@H](O)C[C@H]2N1Cc1ccc(C)s1 | inactive | 
30 | COCc1cc(CN2CCCC2)c(O)c2ncccc12 | inactive | 
31 | O=C1CC(SCc2nc3ccccc3[nH]2)C(=O)N1c1cccc(F)c1 (stereo unspecified) | inconclusive [inhibitor, partial curve] | 
32 | Cc1cc(=O)oc2cc(O)c(CN(C)CC(=O)O)cc12 | inconclusive [inhibitor, partial curve] | 
33 | C1=C(c2ccccc2)Nc2nnnn2C1 |  | inconclusive: -16.9% [inhibitor]
34 | Cc1ccc(NCN2C(=O)C3C4C=CC(C4)C3C2=O)cc1 (stereo unspecified) | inactive | 
35 | COCc1nc(-c2ccc(-c3ccc(C)cc3)nc2OC)no1 |  | inconclusive: -16.6% [inhibitor]
36 | CCC(C)(C)NC(=O)C(c1ccc(F)cc1)N(Cc1ccco1)C(=O)c1snc(C(N)=O)c1N (stereo unspecified) | inconclusive [inhibitor, partial curve] | 
37 | CCCN(CCC)C(=O)C1CCN(c2cc(C)nc3c(-c4ccc(OC)c(OC)c4)c(C)nn23)CC1 | inconclusive [inhibitor, single point] | 
38 | Oc1ccccc1-c1nc(NCC2CCCO2)c2ccccc2n1 (stereo unspecified) | inconclusive [inhibitor, single point] | 
39 | COc1ccc(Cn2c3nc4ccccc4nc3c3c(=O)n(Cc4ccco4)cnc32)cc1 | inconclusive [inhibitor, partial curve] | 
40 | Cc1nn(-c2ccccc2)c2[nH]c(=O)c(CNc3ccc4c(c3)OCCO4)cc12 | inconclusive [inhibitor, single point] | 
41 | Cc1cc2cc(C(c3nnnn3Cc3ccco3)N3CCc4ccccc43)c(=O)[nH]c2cc1C (stereo unspecified) | inconclusive [inhibitor, single point] | 
42 | COc1cc2c(cc1OC)C(CCN)=NCC2 |  | inactive: -4.84% [at 11.5 µM]
43 | CCC(c1nnnn1C1CCCCC1)N(Cc1ccco1)Cc1cc2ccc(OC)cc2[nH]c1=O (stereo unspecified) | inconclusive [inhibitor, partial curve] | 
44 | COCCn1nnnc1C(c1cc2cc(C)ccc2[nH]c1=O)N1CCCCCC1 (stereo unspecified) |  | inconclusive: -16.8% [inhibitor]
45 | NC1=NC2(CCC(c3ccccc3)CC2)n2c(nc3ccccc32)N1 (stereo unspecified) |  | inconclusive: -17% [inhibitor]
46 | COc1ccc(O)c(/C=c2/sc3nc4cc(C)c(C)cc4n3c2=O)c1 |  | inconclusive: -15.2% [inhibitor]
47 | Cc1ccc(CNc2ccc3c(c2)OCO3)cc1 | inconclusive [inhibitor, single point] | 
48 | COc1cccc(Cn2c(=O)c(-c3cn(C)c4ccccc34)nc3cnc(N4CCOCC4)nc32)c1 | inconclusive [inhibitor, full curve] | 

Row | Compound | Potency | activity change, negative = inhibition
49 | O=c1cc(-c2ccccc2)oc2cccc(O)c12 | inactive | 
50 | COc1ccc(Oc2ncc3nc(-c4cccc(C#N)c4)c(=O)n(Cc4cccc(OC)c4)c3n2)cc1 | inconclusive [inhibitor, partial curve] | 
51 | COc1ccc(COC(=O)N/N=C2/C[C@@H](O)[C@@H](O)[C@@H]3[C@@H]4C(=O)N(Cc5ccccc5)C(=O)[C@H]4CC[C@@H]23)cc1 |  | inactive: -0.879% [at 11.5 µM]
52 | CCOc1ccc(OCC(=O)c2c(O)c3ccccc3oc2=O)cc1 | inactive | 
53 | COc1ccc2c(c1)S/C(=C\C(=O)c1ccncc1)N2C | inconclusive [inhibitor, partial curve] | 
54 | COc1ccc(CCn2c(=N)c(C(=O)NCc3ccco3)cc3c(=O)n4cccc(C)c4nc32)cc1 | inconclusive [inhibitor, partial curve] | 
55 | Cn1cc(-c2nc3cnc(N4CCNCC4)nc3n(CCC#N)c2=O)c2ccccc21 | inconclusive [inhibitor, partial curve] | 
56 | Cc1ccc2c(c1)c1ncnc(N3CCc4ccccc4C3)c1n2C | inconclusive [inhibitor, partial curve] | 
57 | N#CCCn1c(=O)c(-c2ccc(Cl)cc2)nc2cnc(Oc3ccccc3)nc21 | inconclusive [inhibitor, partial curve] | 
58 | CCSc1nc(-c2ccc(OC)cc2)ccc1C#N | inactive | 
59 | COc1ccc2cc3cc(C(=O)NCCN4CCc5ccccc5C4)oc3nc2c1 | inactive | 
60 | COCC(=O)N1CCC2(CC1)CCN(c1ccncc1)CC2 | inactive | 
61 | CCCCCn1c(CN(C)Cc2ccccc2)nc2c1c(=O)n(C)c(=O)n2C | inactive | 
62 | CC(=O)N(c1ccc2oc(=O)sc2c1)S(=O)(=O)c1cccs1 | inactive | 
63 | COCCOC(=O)C1=C(C)Nc2nc(C)nn2C1c1ccc(F)cc1 (stereo unspecified) | inactive | 
64 | CCOC(=O)CSc1nc2cc(OC)ccc2cc1C#N | inconclusive [inhibitor, partial curve] | 
65 | CCOc1ccccc1-n1nnnc1SCc1nc2ccccc2s1 | inconclusive [inhibitor, single point] | 
66 | COc1ccccc1N(C(=O)c1snc(C(N)=O)c1N)C(C(=O)NCCC(C)C)c1ccco1 (stereo unspecified) | inconclusive [inhibitor, single point] | 
67 | Cc1ccc(C2C(C#N)=C(N)Oc3cc4c(cc32)OCO4)cc1 (stereo unspecified) | inconclusive [inhibitor, partial curve] | 
68 | CCOC(=O)N1CCN(C(=O)CN2C(=O)COc3ccc(C)cc32)CC1 | inactive | 
69 | CN(C)c1nc(-c2ccoc2)nc2ccccc12 | inactive | 
70 | COc1cc(CCC(=O)N2CCN(c3ccc(N4CCOCC4)nn3)CC2)cc(OC)c1OC | inconclusive [inhibitor, partial curve] | 
71 | COC(=O)CC(=O)CSc1nc2c(cc1C#N)CCCCC2 | inconclusive [inhibitor, partial curve] | 

— PubChem BioAssay AID900 (National Center for Advancing Translational Sciences (NCATS), 2007)
